Data on 40 molecules can be found in the antibiotic and cytotoxicity screens of Wong et al. (2023).

The other results are listed elsewhere or left out.

One assay relates to HSkMC. In words: cytotoxicity call (relative viability < 0.9). The note with it: 10 µM.
In the next assay the test system is HepG2. Nature of the assay: cytotoxicity call (relative viability < 0.9). The note with it: 10 µM.
A further assay concerns S. aureus RN4220. In words: growth inhibition call (relative growth <= 0.2). The note with it: 50 µM.

As for `CNS(=O)(=O)Cc1ccc2[nH]cc(CCN(C)C)c2c1`, the cytotoxicity call in the assay with HSkMC and with HepG2 was “inactive” each time. Besides, in the assay on S. aureus RN4220, the growth inhibition call is “inactive”.

For `C[C@@H]1CN([C@H](C)CO)C(=O)c2c(c3ccccc3n2C)-c2ccccc2CO[C@H]1CN(C)C(=O)N[C@H](C)c1ccccc1`, the cytotoxicity call in the assay with HSkMC and in the assay on HepG2 was “inactive” each time. Moreover, in the assay on S. aureus RN4220, the growth inhibition call was “inactive”.

Turning to `COc1ccc(NC(=O)N(C)C[C@@H]2OCCCC[C@H](C)Oc3ccc(NC(=O)Nc4ccc(F)cc4)cc3C(=O)N([C@@H](C)CO)C[C@@H]2C)cc1`, the cytotoxicity call with HSkMC and in the assay with HepG2 was “inactive” each time. In addition, the growth inhibition call in the assay with S. aureus RN4220 was “inactive”.

Regarding `COc1ccc(CN(C)C[C@H]2OCCCC[C@H](C)Oc3ccc(NC(=O)c4ccccc4)cc3C(=O)N([C@@H](C)CO)C[C@H]2C)cc1`, the cytotoxicity call with HSkMC and in the assay with HepG2 was “inactive” each time. In the assay with S. aureus RN4220, the growth inhibition call was “inactive”.

For `COc1ccc(S(=O)(=O)N[C@H]2C=C[C@@H](CC(=O)N3CCC(Cc4ccccc4)CC3)O[C@@H]2CO)cc1`, the cytotoxicity call with HSkMC and in the assay on HepG2 was “inactive” each time. Also, the growth inhibition call with S. aureus RN4220 was “inactive”.

`CC12CC3(C)CC(C)(C1)CC(C/N=C/c1ccc(O)cc1)(C2)C3`: the cytotoxicity call with HSkMC and in the assay with HepG2 was “inactive” throughout. In addition, in the assay on S. aureus RN4220, the growth inhibition call was “inactive”.

For the molecule `C[C@H](CO)N1C[C@H](C)[C@H](CN(C)C(=O)Nc2cccc3ccccc23)Oc2ncc(-c3ccc(F)cc3)cc2C1=O`, the cytotoxicity call in the assay on HSkMC and in the assay on HepG2 was “inactive” each time. Further, the growth inhibition call with S. aureus RN4220 is “inactive”.

On to `C[C@@H]1CN([C@@H](C)CO)C(=O)c2cccc(NC(=O)c3ccc(-c4nccs4)cc3)c2O[C@@H]1CN(C)C(=O)Nc1ccccc1`, for which the cytotoxicity call with HSkMC and in the assay on HepG2 was “inactive” throughout. Further, the growth inhibition call in the assay on S. aureus RN4220 was “inactive”.

Take `Cc1noc(C)c1S(=O)(=O)N(C)C[C@H]1Oc2c(NS(C)(=O)=O)cccc2C(=O)N([C@@H](C)CO)C[C@H]1C`: the cytotoxicity call in the assay on HSkMC and with HepG2 was “inactive” throughout. Besides, in the assay on S. aureus RN4220, the growth inhibition call was “inactive”.

On to `O=C(COc1ccc(Cl)cc1Cl)NCCn1ncc2c(=O)n(Cc3cccc([N+](=O)[O-])c3)cnc21`, for which the cytotoxicity call in the assay with HSkMC and in the assay on HepG2 was “inactive” throughout. Also, the growth inhibition call in the assay on S. aureus RN4220 is “inactive”.

As for `C[C@H]1CN([C@@H](C)CO)C(=O)c2cccc(NS(=O)(=O)c3ccc(Cl)cc3)c2O[C@H]1CN(C)Cc1ccc(-c2ccccc2)cc1`, the cytotoxicity call in the assay on HSkMC and in the assay on HepG2 was “inactive” in each case. Further, the growth inhibition call with S. aureus RN4220 is “inactive”.

As for `CN(C)C(=O)c1ccc(-c2cccc(-c3nc(C(=O)NC4CCCCC4)cc4c3[C@H](CCO)N([S@@](=O)C(C)(C)C)C4)c2)cc1`, the cytotoxicity call in the assay on HSkMC and with HepG2 was “inactive” throughout. Also, the growth inhibition call with S. aureus RN4220 was “inactive”.

Turning to `C[C@H]1CN([C@@H](C)CO)C(=O)Cc2cc(NS(=O)(=O)c3ccccc3)ccc2O[C@@H]1CN(C)Cc1ccc2c(c1)OCO2`, the cytotoxicity call in the assay on HSkMC and with HepG2 was “inactive” throughout. In addition, the growth inhibition call in the assay on S. aureus RN4220 is “inactive”.

`CO[C@H](CN(C)S(=O)(=O)c1cccc(Cl)c1)[C@@H](C)CN([C@H](C)CO)S(=O)(=O)c1ccc(Cl)cc1`: the cytotoxicity call in the assay on HSkMC and with HepG2 was “inactive” each time. In addition, in the assay on S. aureus RN4220, the growth inhibition call was “inactive”.

On to `C[C@H]1CN([C@@H](C)CO)C(=O)Cc2cc(NC(=O)Nc3ccc(C(F)(F)F)cc3)ccc2O[C@@H]1CN(C)Cc1ccc2c(c1)OCO2`, for which the cytotoxicity call in the assay on HSkMC and in the assay on HepG2 was “inactive” each time. Further, the growth inhibition call with S. aureus RN4220 was “inactive”.

For the molecule `C[C@H](O)C#Cc1ccc2c(c1)O[C@@H](CN(C)C(=O)c1ccncc1)[C@@H](C)CN([C@H](C)CO)S2(=O)=O`, the cytotoxicity call in the assay on HSkMC and in the assay on HepG2 was “inactive” each time. Moreover, the growth inhibition call with S. aureus RN4220 is “inactive”.

As for `CC(C)NC(=O)N(C)C[C@H]1Oc2c(NS(=O)(=O)c3cn(C)cn3)cccc2C(=O)N([C@H](C)CO)C[C@@H]1C`, the cytotoxicity call with HSkMC and in the assay on HepG2 was “inactive” throughout. The growth inhibition call in the assay on S. aureus RN4220 is “inactive”.

On to `COc1cccc(-n2cc(C(=O)NO)nn2)c1`, for which the cytotoxicity call in the assay on HSkMC and in the assay on HepG2 was “inactive” throughout. Also, the growth inhibition call in the assay on S. aureus RN4220 was “inactive”.

As to `Cc1ccc(S(=O)(=O)Nc2ccc3c(c2)C(=O)N([C@H](C)CO)C[C@H](C)[C@@H](CN(C)S(=O)(=O)c2ccc(Cl)cc2)OCCCC[C@H](C)O3)cc1`, in the assay with HSkMC, the cytotoxicity call was “inactive”. In addition, the cytotoxicity call in the assay on HepG2 was “active”. In the assay on S. aureus RN4220, the growth inhibition call is “inactive”.

Take `CCCNC(=O)N1C[C@H](C)[C@H](OC)CN(C)C(=O)c2ccc(NS(=O)(=O)CC(F)(F)F)cc2OC[C@H]1C`: the cytotoxicity call in the assay on HSkMC and in the assay on HepG2 was “inactive” in each case. Further, the growth inhibition call in the assay with S. aureus RN4220 was “inactive”.

On to `COC(=O)CNC(=O)c1ccccc1`, for which the cytotoxicity call in the assay on HSkMC and with HepG2 was “inactive” in each case. The growth inhibition call in the assay on S. aureus RN4220 was “inactive”.

With `O=S(=O)(O)O/N=C(\Cc1ccc(O)cc1)S[C@H]1O[C@H](CO)[C@@H](O)[C@H](O)[C@H]1O`, the cytotoxicity call in the assay with HSkMC and in the assay with HepG2 was “inactive” each time. Further, in the assay on S. aureus RN4220, the growth inhibition call is “inactive”.

For `C[C@@H]1CN([C@H](C)CO)C(=O)c2cccc(NC(=O)c3ccc(-c4nccs4)cc3)c2O[C@@H]1CN(C)Cc1ccc(-c2ccccc2)cc1`, the cytotoxicity call in the assay on HSkMC and in the assay on HepG2 was “inactive” throughout. Also, the growth inhibition call in the assay on S. aureus RN4220 is “inactive”.

Consider `COC(=O)CCc1c(C)[nH]c(=S)[nH]c1=O`, for which the cytotoxicity call in the assay on HSkMC and in the assay with HepG2 was “inactive” throughout. In addition, in the assay on S. aureus RN4220, the growth inhibition call was “inactive”.

Take `C[C@@H]1CCCCO[C@@H](CN(C)Cc2ccc(Cl)c(Cl)c2)[C@H](C)CN([C@@H](C)CO)C(=O)c2cc(NC(=O)c3ccccc3)ccc2O1`: the cytotoxicity call with HSkMC and with HepG2 was “active” in each case. The growth inhibition call with S. aureus RN4220 was “inactive”.

As for `Nc1ccc(OCc2ccccc2)cc1`, the cytotoxicity call with HSkMC and with HepG2 was “inactive” throughout. For the same molecule, the growth inhibition call with S. aureus RN4220 is “inactive”.

Regarding `C[C@@H]1CCCCO[C@H](CN(C)S(=O)(=O)c2cccs2)[C@@H](C)CN([C@@H](C)CO)C(=O)c2cc(NC(=O)NC3CCCCC3)ccc2O1`, the cytotoxicity call with HSkMC and in the assay on HepG2 was “inactive” each time. The growth inhibition call with S. aureus RN4220 is “inactive”.

For the molecule `COc1ccc(NC(=O)N(C)C[C@@H]2Oc3ccc(NC(=O)Cn4cnnn4)cc3CC(=O)N([C@H](C)CO)C[C@@H]2C)cc1`, the cytotoxicity call in the assay with HSkMC and in the assay on HepG2 was “inactive” in each case. Besides, the growth inhibition call in the assay with S. aureus RN4220 was “inactive”.

As to `C[C@H]1CCCCO[C@H](CN(C)S(=O)(=O)c2ccc(Cl)cc2)[C@@H](C)CN([C@@H](C)CO)C(=O)c2cc(NC(=O)Nc3cccc4ccccc34)ccc2O1`, the cytotoxicity call in the assay with HSkMC and with HepG2 was “inactive” each time. Further, the growth inhibition call in the assay with S. aureus RN4220 is “inactive”.

`C[C@@H]1CN([C@H](C)CO)C(=O)c2cc(NC(=O)CCC(F)(F)F)ccc2O[C@@H](C)CCCCO[C@H]1CN(C)C(=O)Nc1ccc(F)cc1`: the cytotoxicity call in the assay with HSkMC and with HepG2 was “inactive” throughout. Besides, the growth inhibition call in the assay on S. aureus RN4220 is “inactive”.

For the molecule `NCc1nncn1-c1ccccc1`, the cytotoxicity call with HSkMC and in the assay on HepG2 was “inactive” throughout. The growth inhibition call in the assay with S. aureus RN4220 is “inactive”.

For `C[C@H]1CCCCO[C@H](CN(C)C(=O)NC2CCCCC2)[C@@H](C)CN([C@@H](C)CO)C(=O)c2cc(NC(=O)Cc3ccccc3)ccc2O1`, the cytotoxicity call in the assay on HSkMC and in the assay on HepG2 was “inactive” throughout. Besides, the growth inhibition call in the assay with S. aureus RN4220 is “inactive”.

With `COCC#Cc1ccc2c(c1)O[C@H](CN(C)S(=O)(=O)c1cccc(F)c1)[C@@H](C)CN([C@@H](C)CO)S2(=O)=O`, the cytotoxicity call with HSkMC and in the assay on HepG2 was “inactive” throughout. The growth inhibition call in the assay on S. aureus RN4220 was “inactive”.

As to `CC(C)c1nc(C(=O)N2CCC[C@@H](N)CC2)cs1`, the cytotoxicity call in the assay with HSkMC and in the assay on HepG2 was “inactive” in each case. In the assay on S. aureus RN4220, the growth inhibition call is “inactive”.

In the case of `COCC(=O)N1C[C@@H](C)[C@H](OC)CN(C)C(=O)c2ccc(NC(=O)c3cc(C)on3)cc2OC[C@H]1C`, the cytotoxicity call in the assay with HSkMC and with HepG2 was “inactive” in each case. Further, the growth inhibition call in the assay with S. aureus RN4220 is “inactive”.

Consider `C[C@H]1CC/C=C\[C@H]2O[C@@]34C=CCN(c5ccc6ccccc6c5)C(=O)[C@H]3N(CCO)C(=O)[C@@H]4[C@@H]2C(=O)O1`, for which the cytotoxicity call with HSkMC and with HepG2 was “inactive” throughout. Further, the growth inhibition call in the assay with S. aureus RN4220 is “inactive”.

Take `C[C@@H]1CN([C@@H](C)CO)C(=O)Cc2cc(NC(=O)Nc3ccc(F)cc3)ccc2O[C@@H]1CN(C)S(C)(=O)=O`: the cytotoxicity call in the assay with HSkMC and with HepG2 was “inactive” throughout. Moreover, the growth inhibition call in the assay on S. aureus RN4220 is “inactive”.

Take `C[C@@H]1CN([C@H](C)CO)C(=O)c2cccc(NC(=O)Nc3cccc4ccccc34)c2O[C@@H]1CN(C)Cc1ccc(Cl)c(Cl)c1`: the cytotoxicity call in the assay on HSkMC and in the assay on HepG2 was “inactive” in each case. Further, the growth inhibition call in the assay on S. aureus RN4220 is “inactive”.

Regarding `C[C@@H]1CN([C@H](C)CO)C(=O)c2cc(NS(=O)(=O)c3ccc(Cl)cc3)ccc2O[C@@H]1CN(C)S(C)(=O)=O`, the cytotoxicity call in the assay on HSkMC and with HepG2 was “inactive” in each case. Besides, in the assay with S. aureus RN4220, the growth inhibition call is “inactive”.

As to `Cc1cc(C(=O)Nc2cccc3c2O[C@H](CN(C)C(=O)NC(C)C)[C@H](C)CN([C@H](C)CO)C3=O)n(C)n1`, the cytotoxicity call in the assay on HSkMC (human skeletal muscle cells) and in the assay with HepG2 was “inactive” each time. Also, the growth inhibition call with S. aureus RN4220 is “inactive”.
